Laboratory results reported in article PMC4336329 (PLoS ONE, 2015).
Among all 310,000 compounds or so, about 14,000 (4.5%) showed an effect of 50% or more. The effect is printed as a negative number. This is one part of the list.

molecular target: human ether-à-go-go-related gene (hERG) potassium channel (human, UniProt Q12809); assay: primary screen, population patch clamp on CHO cells stably expressing hERG
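Note: peak tail current of the secondary pulse compared with the same well before compound.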

Chain of human ether-à-go-go-related gene (hERG) potassium channel (Q12809 whole entry, looked up): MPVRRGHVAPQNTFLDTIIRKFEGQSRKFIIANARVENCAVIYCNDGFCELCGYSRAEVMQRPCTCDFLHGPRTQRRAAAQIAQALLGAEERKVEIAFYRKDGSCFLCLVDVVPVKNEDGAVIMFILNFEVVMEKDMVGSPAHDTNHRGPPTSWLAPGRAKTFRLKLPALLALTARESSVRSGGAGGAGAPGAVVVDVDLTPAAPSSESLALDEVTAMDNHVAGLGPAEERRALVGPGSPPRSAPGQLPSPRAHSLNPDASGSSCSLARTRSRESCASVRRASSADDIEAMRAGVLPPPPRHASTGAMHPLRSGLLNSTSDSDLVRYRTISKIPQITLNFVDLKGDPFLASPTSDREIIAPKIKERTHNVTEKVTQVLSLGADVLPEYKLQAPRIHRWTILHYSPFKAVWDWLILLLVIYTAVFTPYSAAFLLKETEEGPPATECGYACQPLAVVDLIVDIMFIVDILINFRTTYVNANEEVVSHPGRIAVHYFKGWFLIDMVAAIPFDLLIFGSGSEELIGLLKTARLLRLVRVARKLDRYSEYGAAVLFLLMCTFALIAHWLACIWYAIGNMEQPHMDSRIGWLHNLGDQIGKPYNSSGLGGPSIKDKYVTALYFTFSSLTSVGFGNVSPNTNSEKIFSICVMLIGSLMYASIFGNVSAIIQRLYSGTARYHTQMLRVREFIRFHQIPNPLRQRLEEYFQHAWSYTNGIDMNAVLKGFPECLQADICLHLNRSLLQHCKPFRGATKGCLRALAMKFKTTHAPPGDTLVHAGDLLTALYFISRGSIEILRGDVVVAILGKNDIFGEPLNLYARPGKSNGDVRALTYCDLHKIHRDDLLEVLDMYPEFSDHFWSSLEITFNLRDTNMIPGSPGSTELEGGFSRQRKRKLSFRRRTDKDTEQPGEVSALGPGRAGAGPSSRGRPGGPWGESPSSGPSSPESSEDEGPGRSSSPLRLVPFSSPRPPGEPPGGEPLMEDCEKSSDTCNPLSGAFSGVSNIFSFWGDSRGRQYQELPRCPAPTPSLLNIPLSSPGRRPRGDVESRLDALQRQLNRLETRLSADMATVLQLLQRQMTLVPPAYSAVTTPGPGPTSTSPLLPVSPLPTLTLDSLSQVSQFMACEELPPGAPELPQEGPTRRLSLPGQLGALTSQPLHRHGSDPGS

Structure (SMILES)	hERG current change (%, negative = inhibition) at 10uM [%]
C#CCNC(=O)C1=C[C@H](c2ccc(Br)cc2)C[C@H](OCc2ccc(CO)cc2)O1	-18.6
CC(=O)Nc1ccc(Nc2cc(C)nc(Nc3ccc(NC(C)=O)cc3)n2)cc1	11.3
O=C1NC(=O)N(CCc2ccc(F)cc2)C(=O)/C1=C/c1cccs1	16.1
Cc1ccc(S(=O)(=O)N2CCOCC2)cc1NC(=O)CNC1CCCC1.O=C(O)C(=O)O	5.67
CCOC(=O)Cc1csc(NC(=O)C(C)c2ccc([N+](=O)[O-])cc2)n1 (stereo not shown)	-55.9
COc1ccccc1OC(=O)c1ccc2nsnc2c1	8.28
CCOC(=O)c1cnc2ccc(C(=O)OC)cc2c1Nc1ccc(C(=O)O)cc1.Cl	5.66
O=C(O)c1nnn(-c2ccc([N+](=O)[O-])cc2)c1-c1ccccc1	-4.49
Cc1cc(=O)oc2c3c(cc(OCC(=O)Nc4ccc(CCO)cc4)c12)OC(C)(C)CC3	0.169
CCn1c(=O)c2c(nc3n2CCCN3CCc2ccc(OC)c(OC)c2)n(C)c1=O	-5.18
CCC(=O)Nc1cccc(-n2nnnc2SCC(=O)NCc2ccco2)c1	0.69
COCCn1nnnc1C(c1ccc(OC)cc1)N1CCN(C(=O)c2ccco2)CC1.Cl (stereo not shown)	-4.77
CCCCSc1nc2sc3c(c2c(=O)n1-c1ccc(C)cc1)CCN(C)C3	-4.38
Cc1ccc(S(=O)(=O)N2CCN(C(=O)c3cc(C4CC4)nc4c3cnn4C(C)C)CC2)cc1	3.85
C=CCNC(=O)c1ccccc1NC(=O)C1COc2ccccc2O1 (stereo not shown)	4.92
O=C(Nc1ccccc1)C1CCCCC1	-1.86
O=C(CSc1nnnn1C1CCCC1)NCc1cccs1	23.4
CCC(=O)c1ccc(OCC(=O)Nc2ccc(N3CCOCC3)cc2N2CCOCC2)cc1	4.98
CCOC(=O)c1ccc(COC(=O)CCc2nc3ccccc3[nH]c2=O)o1	5.57
Cc1ccc(CNCC2CCCO2)o1 (stereo not shown)	7.37
O=C(O)CN1C(=O)S/C(=C\c2ccc3c(c2)OCO3)C1=O	13
CN1CCN(C(=O)C2(NC(=O)Nc3ccccc3Cl)CCCCC2)CC1	11.9
O=C(N/N=C/c1ccccc1)c1ccc(N2CCCC2=O)cc1	5.87
CC(C)c1ccc(OCC(O)CN2CCN(c3ccccn3)CC2)cc1.Cl (stereo not shown)	-63.7
O=C(Cc1ccc(F)cc1)Nc1ccc(Cl)cn1	7.09
Cc1cccc(NC(=O)c2ccoc2C)n1	16.8
O=C(CNC(=O)c1ccccc1F)NCCc1ccccc1F	1.09
O=C(CCn1c(=O)oc2cc(Cl)ccc21)Nc1ccc(O)cc1	-15.3

Structure (SMILES)	hERG current change (%, negative = inhibition) at 10uM [%]
O=C(Cn1nc(-c2ccccc2)c2ccccc2c1=O)Nc1cccnc1	2.61
CCc1ccc(N2CC(C(=O)OCC(=O)NNC(=O)c3ccccc3)CC2=O)cc1 (stereo not shown)	4.54
COc1ccc(CCNC(=O)C2CCC(=O)N2CCc2ccccc2)cc1OC (stereo not shown)	12.4
CCCCC(=O)NC(=O)NC(c1ccccc1)c1ccccc1	-2.42
O=C(CN1C(=O)NC2(CCCCCCC2)C1=O)Nc1ccc(Br)cc1	5.19
CC(C)C(C)(C#N)NC(=O)CSc1nc2scc(-c3ccc(F)cc3)c2c(=O)n1Cc1ccccc1 (stereo not shown)	8.08
COCCNC(=S)NNC(=O)CSCc1ccc(Cl)cc1Cl	9.06
COc1ccc(C)cc1S(=O)(=O)N(CC(=O)N1CCCC1)c1ccc(C)cc1	-53
Cc1nc2cc(N)ccc2n1-c1ccccc1	0.742
COCCNC(=O)CN1CCN(C(c2ccccc2)c2ccccc2)CC1.O=C(O)C(=O)O	-7.42
CCOC(=O)c1oc2cc(OCC(N)=O)ccc2c(=O)c1-c1ccc(OC)c(OC)c1	14.8
Cc1ccc(Cn2nnc3c(=O)n(CC(=O)NCC4CCCO4)cnc32)cc1 (stereo not shown)	-12.6
COc1ccc(CN2C(=NC(=O)CCC3CCCC3)SC3CS(=O)(=O)CC32)cc1 (stereo not shown)	19.7
O=C(COc1ccc2ccccc2c1)Nc1cccc2cccnc12	19.3
O=C(O)c1cc(NC(=O)c2ccc(Br)cc2)cc(NC(=O)c2ccc(Br)cc2)c1	17.6
CCOC(=O)N1CCN(C(=O)C2CCC(CNS(=O)(=O)c3ccccc3)CC2)CC1 (stereo not shown)	3.18
CCCCN(C)CCN1C(=O)C2C(C(=O)Nc3ccc(OC)cc3)C3C=CC2(O3)C1C(=O)NC1CCCCC1 (stereo not shown)	-8.93
CCC(CC)c1nnc(NC(=O)Cc2ccccc2[N+](=O)[O-])s1	-8.11
COc1ccccc1CCc1nnc(CCC(=O)NCC(C)Oc2cccnc2)o1 (stereo not shown)	-9
COc1cc(OC)cc(N(C(=O)C2COc3ccccc3O2)C(C(=O)NC2CCCCC2)c2ccc(O)cc2)c1 (stereo not shown)	8.29
O=C(NCc1cccc(CNC(=O)C(=O)NCC2CCCO2)c1)C(=O)NCC1CCCO1 (stereo not shown)	13.4
O=C(COc1ccccc1Cl)NC(=O)NC1CCCC1	5.55
COc1ccc2c(CC(=O)OCC(=O)NC(N)=O)coc2c1	0.524
CCNS(=O)(=O)c1ccc(NC(=O)Cc2ccc(F)cc2)cc1	2.16
O=C(CSc1nc(-c2ccc(F)cc2)cs1)NCCN1C(=O)CSC1=O	1.84
Cn1c(=O)c2nnn(/N=C(\c3ccccc3)C3CC3)c2n(C)c1=O	-22.3
CC(=O)Nc1ccc(SC(C)C(=O)NC(N)=O)cc1 (stereo not shown)	9.73
